Experimental data taken from publication PMC4336329 (PLoS ONE, 2015).
The whole screen tested about 310,000 compounds, of which about 2,200 (0.71%) showed an effect of 50% or more. The effect is printed as a negative number. The list shows a part of the results.

These compounds were tested against human ether-à-go-go-related gene (hERG) potassium channel (human, UniProt Q12809) (assay: primary screen, population patch clamp on CHO cells stably expressing hERG).
human ether-à-go-go-related gene (hERG) potassium channel, sequence (Q12809 whole entry, looked up): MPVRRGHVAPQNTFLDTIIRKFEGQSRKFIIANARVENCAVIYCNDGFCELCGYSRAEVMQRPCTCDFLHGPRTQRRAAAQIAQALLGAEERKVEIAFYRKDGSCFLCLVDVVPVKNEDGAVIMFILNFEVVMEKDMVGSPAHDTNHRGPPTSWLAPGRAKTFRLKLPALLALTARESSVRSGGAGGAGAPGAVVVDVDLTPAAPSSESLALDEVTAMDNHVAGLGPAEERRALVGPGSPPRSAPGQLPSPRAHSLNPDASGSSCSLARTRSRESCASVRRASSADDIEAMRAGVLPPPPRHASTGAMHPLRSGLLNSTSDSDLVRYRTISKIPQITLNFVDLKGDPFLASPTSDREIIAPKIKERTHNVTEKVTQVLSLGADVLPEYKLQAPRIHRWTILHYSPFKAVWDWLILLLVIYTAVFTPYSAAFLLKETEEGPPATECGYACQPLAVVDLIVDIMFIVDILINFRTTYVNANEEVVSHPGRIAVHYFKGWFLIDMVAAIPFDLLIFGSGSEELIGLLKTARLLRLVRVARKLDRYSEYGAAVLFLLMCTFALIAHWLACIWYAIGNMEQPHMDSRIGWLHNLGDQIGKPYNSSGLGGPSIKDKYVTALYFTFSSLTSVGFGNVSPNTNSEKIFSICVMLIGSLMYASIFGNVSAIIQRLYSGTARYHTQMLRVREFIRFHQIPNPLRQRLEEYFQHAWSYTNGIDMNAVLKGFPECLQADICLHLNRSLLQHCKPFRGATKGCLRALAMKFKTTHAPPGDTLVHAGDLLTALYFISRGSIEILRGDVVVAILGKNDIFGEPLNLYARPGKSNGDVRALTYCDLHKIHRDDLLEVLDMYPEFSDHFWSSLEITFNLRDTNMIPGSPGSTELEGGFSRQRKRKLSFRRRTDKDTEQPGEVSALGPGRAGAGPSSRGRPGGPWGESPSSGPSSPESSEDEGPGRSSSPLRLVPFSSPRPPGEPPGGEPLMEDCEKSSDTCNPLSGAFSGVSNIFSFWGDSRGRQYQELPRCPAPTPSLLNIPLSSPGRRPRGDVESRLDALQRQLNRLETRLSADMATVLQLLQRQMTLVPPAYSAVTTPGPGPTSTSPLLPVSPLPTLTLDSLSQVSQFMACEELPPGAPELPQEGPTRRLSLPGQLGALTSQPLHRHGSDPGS

| SMILES | hERG current change (%, negative = inhibition) at 1uM |
| --- | --- |
| N/C(=N\OC(=O)Cc1ccccc1)c1ccc([N+](=O)[O-])cc1 | 9.05% |
| COc1cc(C2=NOC(C(=O)Nc3ccc(C(C)=O)cc3)C2)cc(OC)c1OC (stereo not shown) | 7.62% |
| COc1ccc(C(=O)CN2C(=O)NC3(CCCc4ccccc43)C2=O)c(OC)c1 (stereo not shown) | 18.5% |
| Clc1ccc(-c2nc(C3CCCCC3)no2)cc1 | 14.6% |
| O=C(NCC12CC3CC(CC(C3)C1)C2)c1cc2n(n1)C(C(F)(F)F)CC(c1ccco1)N2 (stereo not shown) | 4.12% |
| CC(=O)c1ccc(C(=O)N2CCCC(C(=O)c3cc(F)ccc3F)C2)s1 (stereo not shown) | 9% |
| CCOC(=O)c1ccc(N2C(=O)CC(N3CCC(O)(c4ccc(Cl)cc4)CC3)C2=O)cc1 (stereo not shown) | 11.3% |
| N#Cc1cc2c(nc1SCc1cccnc1)CCCCC2 | 6.53% |
| COc1ccccc1N=c1oc2cc(O)ccc2cc1C(=O)NCC1CCCO1 (stereo not shown) | 5.19% |
| O=C(NCc1ccccc1)C1CCN(S(=O)(=O)N2CCOCC2)CC1 | 1.6% |
| O=C(Nc1ccc(S(=O)(=O)N2CCCCC2)cc1)c1ccc(CN2CCc3ccccc3C2)cc1 | 8.4% |
| O=C(Nc1cccc(/C=C/c2nc3ccccc3c(=O)[nH]2)c1)c1ccccc1Cl | -3.57% |
| COc1ccc(C(=O)N2CCCC(Nc3ccc(F)c(F)c3)C2)c(OC)n1 (stereo not shown) | 19.8% |
| CCOC(=O)C1C(=O)Nc2nc3ccccc3n2C1C(C)C (stereo not shown) | -2.15% |
| CCC(=O)NC(=S)NNC(=O)c1ccc(O)cc1 | 14.5% |
| CC(Sc1nc2ccccc2c(=O)n1CC1CCCO1)C(=O)NC(C)c1ccccc1 (stereo not shown) | 5.74% |
| Nn1c(SCC(=O)Nc2ccc3c(c2)OCO3)nnc1-c1ccccc1 | -1.21% |
| Cn1c(NCCCN2CCOCC2)nc2c1c(=O)n(Cc1ccc(Cl)cc1)c(=O)n2C | -1.96% |
| CCn1cnc2c(cnn2-c2ccccc2)c1=O | 14.3% |
| O=C(Nc1ccncc1)c1cc(-c2cccc(Br)c2)nc2ccccc12 | 6.75% |

| SMILES | hERG current change (%, negative = inhibition) at 1uM |
| --- | --- |
| O=C(CS(=O)(=O)c1ccccc1)Nc1nnc(-c2cccs2)o1 | 8.66% |
| Nc1nonc1-n1nnc(C(=O)N/N=C/C=C/c2ccccc2)c1CSC1=NCCS1 | 3.57% |
| Cc1ccccc1CC1(CO)CCCN(C(=O)Cc2c(F)ccc(F)c2F)C1 (stereo not shown) | 14.9% |
| CCOC(=O)CNC(=O)CSc1nnc(NC(=O)c2ccccc2Cl)s1 | 13.9% |
| O=S(=O)(N1CCCCCC1)N1CCN(S(=O)(=O)N2CCCCC2)CC1 | -7.57% |
| CCCCCCC(=O)Nc1nnc(CC)s1 | 2.95% |
| CCOC(=O)N1CCN(C(=O)C2CCN(S(=O)(=O)c3ccc(C)cc3)CC2)CC1 | 1.63% |
| O=C(NCc1ccccn1)Nc1ccccc1F | 15.7% |
| CC(CCc1ccccc1)N1CCN(C)CC1 (stereo not shown) | 6.6% |
| COc1ccc(C2=NOC(C)(c3nnc(-c4ccc(Cl)cc4)o3)C2)cc1 (stereo not shown) | -15% |
| O=C(O)COc1ccc(/C=C/c2ccc3cccc([N+](=O)[O-])c3n2)cc1 | 4.28% |
| CCCn1c(SCC(=O)Nc2c(CC)cccc2CC)nnc1C(C)C | 11.8% |
| Cc1cccc(C)c1N(CC(=O)N/N=C/c1cc(Br)c(C)o1)S(C)(=O)=O | 0.352% |
| COc1cc(/C=N/NS(=O)(=O)c2ccc(C)cc2)ccc1OCc1ccc(C(=O)O)cc1 | 1.13% |
| CCOC(=O)C(=O)Nc1ccc(F)cc1 | 9.9% |
| CCC(C)CN1CCC(CO)(Cc2ccccc2Cl)CC1 (stereo not shown) | -1.97% |
| CC(C)Nc1nc(NC(C)(C)C)nc(Oc2ccc(=O)n(C)n2)n1 | -2.23% |
| O=C1CCCc2ccccc2N1Cc1ccc(F)cc1 | 15% |
| c1ccc2cc3[nH]c(CN4CCOCC4)nc3cc2c1 | 9.64% |
| Cc1cccc(C(=O)OCC(=O)N(C)c2ccccc2)c1C | 5.54% |

| SMILES | hERG current change (%, negative = inhibition) at 1uM |
| --- | --- |
| CCC(=O)NCCc1nc2ccccc2n1CC | 15% |
| Fc1ccc(NC(=S)NC2CCN(Cc3ccccc3)CC2)cc1 | 6.75% |
| O=C(/C=C/c1ccccc1[N+](=O)[O-])NCCN1C(=O)S/C(=C\c2ccc(F)cc2)C1=O | 13.3% |
| O=C1CSC2(CCCCC2)N1CCO | 12.4% |
| Cc1cc(C)c2c(N)c(C(=O)NC3CC3)sc2n1 | 7.69% |
| O=C(OCCNC(=O)c1ccc2ccccc2n1)c1ccc(F)cc1 | 4.77% |
| COc1ccc(C(=O)NNC(=O)CSc2nnc(C)n2CC2CCCO2)cc1 (stereo not shown) | 13.2% |
| O=C(COc1ccc(Cl)cc1)N1CCN(S(=O)(=O)c2ccccc2)CC1 | -13.2% |
| NC(=O)Cc1nc2scc(-c3ccc(Cl)cc3)c2c(=O)[nH]1 | 6.36% |
| O=C(Oc1ccnc2cc(Cl)ccc12)N1CCOCC1 | 6.64% |
| O=C(CN(Cc1ccc(Cl)cc1)S(=O)(=O)c1ccccc1)NCC1CCCO1 (stereo not shown) | 6.36% |
| CCOc1nc(C)cc(COC)c1C(N)=O | 2.79% |
| COC(=O)[C@@H]1C[C@@]2(O)[C@H](O)[C@H](O)[C@H](O)C[C@H]2N1Cc1ccc(C(C)(C)C)cc1 | 14.7% |
| COc1ccccc1OCc1ccc(C(=O)N2CCN(C)CC2)o1 | 0.39% |
| NCCCC[C@H]1CNC(=S)N1CC1CCCCC1 | 16.9% |
| CC(C)Cn1c(N)c(C(=O)COC(=O)Cc2cccc(C(F)(F)F)c2)c(=O)n(C)c1=O | -6.75% |
| CC(C)OCCCNC(=O)C1CCC(=O)N1C(C)C (stereo not shown) | -1.9% |
| COc1ccc(N2C(=O)[C@@H]3C(c4cccnc4)=NO[C@@H]3C2=O)cc1 | 11.7% |
